{"source": "the supplement of paper PMC8728848", "experiment_in_all_cases": "glycan array binding signal (z-score within array); higher = stronger binding", "conditions_in_all_cases": "glycan notation: IUPAC condensed, linker removed", "key": {"Fuc(a1-2)Gal": {"target": "Fuc(a1-2)Gal", "in_short": "(§1)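 Glycan array binding is given as a within-array Z-score, which can be read as non-binding when negative. The arrays, 3228 of them, came from the Consortium for Functional Glycomics database and were retained only where the protein sequence was available. Z-scores were averaged across arrays of the same protein sequence at different concentrations or buffers and across linkers.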"}, "Fuc(a1-2)Gal(b1-3)GalNAc": {"target": "Fuc(a1-2)Gal(b1-3)GalNAc", "in_short": "as §1"}, "[1]": {"target": "Fuc(a1-2)Gal(b1-3)GalNAc(b1-3)Gal", "in_short": "as §1"}, "[2]": {"target": "Fuc(a1-2)Gal(b1-3)GalNAc(b1-3)Gal(a1-4)Gal(b1-4)Glc", "in_short": "as §1"}, "[3]": {"target": "Fuc(a1-2)Gal(b1-3)GalNAc(b1-3)Gal(b1-4)Glc", "in_short": "as §1"}, "[4]": {"target": "Fuc(a1-2)Gal(b1-3)GalNAc(b1-4)[Neu5Ac(a2-3)]Gal(b1-4)Glc", "in_short": "as §1"}, "[5]": {"target": "Fuc(a1-2)Gal(b1-3)[Fuc(a1-4)]GlcNAc", "in_short": "as §1"}, "Fuc(a1-2)Gal(b1-4)Glc": {"target": "Fuc(a1-2)Gal(b1-4)Glc", "in_short": "as §1"}, "Fuc(a1-2)Gal(b1-4)GlcNAc": {"target": "Fuc(a1-2)Gal(b1-4)GlcNAc", "in_short": "as §1"}, "[6]": {"target": "Fuc(a1-2)Gal(b1-4)GlcNAc(b1-3)Gal(b1-4)GlcNAc", "in_short": "as §1"}, "[7]": {"target": "Fuc(a1-2)Gal(b1-4)GlcNAc(b1-3)Gal(b1-4)GlcNAc(b1-3)Gal(b1-4)GlcNAc", "in_short": "as §1"}, "[8]": {"target": "Fuc(a1-2)Gal(b1-4)[Fuc(a1-3)]GalNAc(b1-3)Gal(b1-4)[Fuc(a1-3)]GlcNAc", "in_short": "as §1"}, "[9]": {"target": "Fuc(a1-2)Gal(b1-4)[Fuc(a1-3)]GalNAc(b1-3)Gal(b1-4)[Fuc(a1-3)]GlcNAc(b1-3)Gal(b1-4)[Fuc(a1-3)]GalNAc", "in_short": "as §1"}, "[10]": {"target": "Fuc(a1-2)Gal(b1-4)[Fuc(a1-3)]GlcNAc", "in_short": "as §1"}, "Fuc(a1-2)GlcNAc": {"target": "Fuc(a1-2)GlcNAc", "in_short": "as §1"}, "Fuc(a1-2)[Gal(a1-3)]Gal": {"target": "Fuc(a1-2)[Gal(a1-3)]Gal", "in_short": "as §1"}, "[11]": {"target": "Fuc(a1-2)[Gal(a1-3)]Gal(b1-3)GlcNAc", "in_short": "as §1"}, "[12]": {"target": "Fuc(a1-2)[Gal(a1-3)]Gal(b1-4)Glc", "in_short": "as §1"}, "[13]": {"target": "Fuc(a1-2)[Gal(a1-3)]Gal(b1-4)GlcNAc", "in_short": "as §1"}, "[14]": {"target": "Fuc(a1-2)[Gal(a1-3)]Gal(b1-4)[Fuc(a1-3)]GlcNAc", "in_short": "as §1"}, "[15]": {"target": "Fuc(a1-2)[Gal(a1-4)]Gal(b1-4)GalNAc", "in_short": "as §1"}, "[16]": {"target": "Fuc(a1-2)[GalNAc(a1-3)]Gal", "in_short": "as §1"}, "[17]": {"target": "Fuc(a1-2)[GalNAc(a1-3)]Gal(b1-3)GlcNAc", "in_short": "as §1"}, "[18]": {"target": "Fuc(a1-2)[GalNAc(a1-3)]Gal(b1-4)Glc", "in_short": "as §1"}, "[19]": {"target": "Fuc(a1-2)[GalNAc(a1-3)]Gal(b1-4)GlcNAc", "in_short": "as §1"}, "[20]": {"target": "Fuc(a1-2)[GalNAc(a1-3)]Gal(b1-4)[Fuc(a1-3)]GlcNAc", "in_short": "as §1"}, "[21]": {"target": "Fuc(a1-2)[GalNAc(a1-4)]Gal(b1-4)GlcNAc", "in_short": "as §1"}, "Fuc(a1-3)GlcNAc": {"target": "Fuc(a1-3)GlcNAc", "in_short": "as §1"}, "[22]": {"target": "Fuc(a1-3)[Gal(b1-4)]GlcNAc", "in_short": "as §1"}, "[23]": {"target": "Fuc(a1-3)[Gal(b1-4)]GlcNAc(b1-4)Gal(b1-4)[Fuc(a1-3)]GlcNAc", "in_short": "as §1"}}, "note": "This is one part of the list.", "data": [{"binder": "chitinase 3-like protein 2 (Homo sapiens) (protein) YKLVCYFTQWSQDRQEPGKFTPENIDPFLCSHLIYSFASIENNKVIIKDKSEVMLYQTINSLKTKNPKLKILLSIGGYLFGSKGFHPMVDSSTSRLEFINSIILFLRNHNFDGLDVSWIYPDQKENTHFTVLIHELAEAFQKDFTKSTKERLLLTAGVSAGRQMIDNSYQVEKLAKDLDFINLLSFDFHGSWEKPLITGHNSPLSKGWQDRGPSSYYNVEYAVGYWIHKGMPSEKVVMGIPTYGHSFTLASAETTVGAPASGPGAAGPITESSGFLAYYEICQFLKGAKITRLQDQQVPYAVKGNQWVGYDDVKSMETKVQFLKNLNLGGAMIWSIDMDDFTGKSCNQGPYPLVQAVKRSLGSL", "values": [{"measurement": "glycan array binding signal (z-score)", "setting": "Fuc(a1-2)Gal", "result": -0.134}, {"measurement": "glycan array binding signal (z-score)", "setting": "Fuc(a1-2)Gal(b1-3)GalNAc", "result": -0.144}, {"measurement": "glycan array binding signal (z-score)", "setting": "[1]", "result": -0.164}, {"measurement": "glycan array binding signal (z-score)", "setting": "[2]", "result": -0.077}, {"measurement": "glycan array binding signal (z-score)", "setting": "[3]", "result": -0.251}, {"measurement": "glycan array binding signal (z-score)", "setting": "[4]", "result": -0.149}, {"measurement": "glycan array binding signal (z-score)", "setting": "[5]", "result": -0.208}, {"measurement": "glycan array binding signal (z-score)", "setting": "Fuc(a1-2)Gal(b1-4)Glc", "result": -0.212}, {"measurement": "glycan array binding signal (z-score)", "setting": "Fuc(a1-2)Gal(b1-4)GlcNAc", "result": -0.144}, {"measurement": "glycan array binding signal (z-score)", "setting": "[6]", "result": -0.221}, {"measurement": "glycan array binding signal (z-score)", "setting": "[7]", "result": 0.12}, {"measurement": "glycan array binding signal (z-score)", "setting": "[8]", "result": -0.22}, {"measurement": "glycan array binding signal (z-score)", "setting": "[9]", "result": 0.268}, {"measurement": "glycan array binding signal (z-score)", "setting": "[10]", "result": -0.169}, {"measurement": "glycan array binding signal (z-score)", "setting": "Fuc(a1-2)GlcNAc", "result": -0.243}, {"measurement": "glycan array binding signal (z-score)", "setting": "Fuc(a1-2)[Gal(a1-3)]Gal", "result": -0.136}, {"measurement": "glycan array binding signal (z-score)", "setting": "[11]", "result": -0.222}, {"measurement": "glycan array binding signal (z-score)", "setting": "[12]", "result": -0.25}, {"measurement": "glycan array binding signal (z-score)", "setting": "[13]", "result": -0.133}, {"measurement": "glycan array binding signal (z-score)", "setting": "[14]", "result": -0.231}, {"measurement": "glycan array binding signal (z-score)", "setting": "[15]", "result": -0.207}, {"measurement": "glycan array binding signal (z-score)", "setting": "[16]", "result": -0.196}, {"measurement": "glycan array binding signal (z-score)", "setting": "[17]", "result": -0.162}, {"measurement": "glycan array binding signal (z-score)", "setting": "[18]", "result": -0.243}, {"measurement": "glycan array binding signal (z-score)", "setting": "[19]", "result": -0.198}, {"measurement": "glycan array binding signal (z-score)", "setting": "[20]", "result": -0.03}, {"measurement": "glycan array binding signal (z-score)", "setting": "[21]", "result": -0.205}, {"measurement": "glycan array binding signal (z-score)", "setting": "Fuc(a1-3)GlcNAc", "result": -0.246}, {"measurement": "glycan array binding signal (z-score)", "setting": "[22]", "result": -0.237}, {"measurement": "glycan array binding signal (z-score)", "setting": "[23]", "result": -0.222}]}]}
